Data as given in PubChem BioAssay AID887 (National Center for Advancing Translational Sciences (NCATS), 2007).
Several values for one entry are separate records, joined by “and”; a condition that tells them apart may be missing. Equal entries are not always repeated. The whole screen tested about 74,000 compounds, of which about 1,100 (1.5%) were called active. Inconclusive means that the source gave no clear call. Such entries were picked first, then a sample of the others. The call rests on the fitted dose curve; in most records, active means well fitted inhibition curve with a large enough effect; inconclusive means small, poorly fitted or top-dose-only effect; inactive means no such curve, though single readings can be large or run the other way. Potencies of inconclusive entries are left out as doubtful fits.

target: Polyunsaturated fatty acid lipoxygenase ALOX15 (Homo sapiens) (UniProt P16050); test: qHTS Assay for Inhibitors of 15-hLO (15-human lipoxygenase); conditions: purified 15hLO-1, xylenol orange hydroperoxide absorbance; activity change, negative = inhibition: at 57.1 µM (top of the series) unless noted; further: nearly all actives have a fitted effect of over 55% in size
Outline: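 Compounds were preincubated 15 min at room temperature with 40 nM purified human enzyme (25 mM Hepes pH 7.5, 0.01% Triton X-100); 50 uM arachidonic acid reacted 6 min. Fe-xylenol orange detection, 30 min, absorbance ratio 573/405 nm.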
On the % scale 0 is the no-effect control and ±100 the full control effect; potency means the concentration at half of the fitted maximal effect; tags describe the fitted curve by direction and shape.

Chain of UniProt P16050 (P16050 whole entry, looked up): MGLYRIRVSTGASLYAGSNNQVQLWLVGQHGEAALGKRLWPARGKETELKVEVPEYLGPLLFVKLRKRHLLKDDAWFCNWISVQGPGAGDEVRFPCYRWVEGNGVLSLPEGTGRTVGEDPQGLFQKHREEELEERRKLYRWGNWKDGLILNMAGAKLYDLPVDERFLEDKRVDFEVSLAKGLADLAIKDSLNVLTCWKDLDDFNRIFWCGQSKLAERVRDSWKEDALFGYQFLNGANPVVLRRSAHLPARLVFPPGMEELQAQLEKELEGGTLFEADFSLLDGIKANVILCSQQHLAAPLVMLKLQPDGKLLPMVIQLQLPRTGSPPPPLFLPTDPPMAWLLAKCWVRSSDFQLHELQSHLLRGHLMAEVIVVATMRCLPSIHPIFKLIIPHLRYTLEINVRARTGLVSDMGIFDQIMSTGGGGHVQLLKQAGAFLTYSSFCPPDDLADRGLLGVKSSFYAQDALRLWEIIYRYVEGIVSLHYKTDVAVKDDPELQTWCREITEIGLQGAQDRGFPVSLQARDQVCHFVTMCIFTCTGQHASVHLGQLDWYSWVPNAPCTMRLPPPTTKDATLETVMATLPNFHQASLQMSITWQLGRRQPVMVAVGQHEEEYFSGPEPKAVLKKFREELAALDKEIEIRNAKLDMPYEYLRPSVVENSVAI

Compound	Potency	activity change, negative = inhibition
O=C1CC(c2ccco2)Sc2nc3ccccc3n21 (stereo not given)	inconclusive [inhibitor, single point]	
CC1=C(C(N)=O)C(c2ccccn2)n2nc(SCc3ccccc3)nc2N1 (stereo not given)	inconclusive [inhibitor, single point]	
COc1ccc2[nH]c(=O)c(CN(Cc3nnnn3Cc3ccccc3)CC3CCCO3)cc2c1 (stereo not given)	inconclusive [inhibitor, single point]	
C[N+](C)(C)CC[N+]1(C)Cc2c(Cl)c(Cl)c(Cl)c(Cl)c2C1	inconclusive [inhibitor, partial curve]	
C[C@@H](c1ccccc1)N1C(=O)[C@H]2[C@H]3[C@H](O)[C@H](O)C/C(=N/NC(=O)OCc4ccccc4)[C@H]3CC[C@@H]2C1=O		inactive: 5.76% [at 11.4 µM]
Cn1ccnc1C[C@@](C)(O)c1ccccc1		inactive: 2.11% [at 11.4 µM]
O=C(NCCN1CCN(c2ccccc2F)CC1)c1cccn2c(=O)c3ccccc3nc12	inconclusive [inhibitor, partial curve, poor fit]	
Cc1cc(C)c2nc(N3CCCC(C(=O)NCCN4CCOCC4)C3)sc2c1 (stereo not given)	inactive	
Cc1ccc(S(=O)(=O)N(CC(=O)N2CCC(C(N)=O)CC2)Cc2ccc(F)cc2)cc1	inactive	
O=C(/C=C/c1ccc(O)c(O)c1)OCCc1ccccc1	active: 0.501 µM	
O=C(OCC1OC(OC(=O)c2cc(O)c(O)c(OC(=O)c3cc(O)c(O)c(O)c3)c2)[C@@H](OC(=O)c2cc(O)c(O)c(OC(=O)c3cc(O)c(O)c(O)c3)c2)C(OC(=O)c2cc(O)c(O)c(OC(=O)c3cc(O)c(O)c(O)c3)c2)C1OC(=O)c1cc(O)c(O)c(OC(=O)c2cc(O)c(O)c(O)c2)c1)c1cc(O)c(O)c(OC(=O)c2cc(O)c(O)c(O)c2)c1 (stereo not given in full)	active: 0.501 µM	
CCOc1ccc(C2C(C#N)=C(N)N3C(=C2C#N)Sc2ccccc23)cc1 (stereo not given)	inconclusive [inhibitor, full curve]	
CN1CCN(CCCN2c3ccccc3Sc3ccc(Cl)cc32)CC1	inconclusive [inhibitor, single point]	
Clc1ccc2nc(-c3ccccc3)[nH]c2c1	inactive	
O=C1[C@@H]2[C@@H](C(=O)N1c1ccc(OCc3ccccc3)cc1)[C@@H]1c3ccccc3[C@@H]2[n+]2ccccc21		inactive: -0.733% [at 11.4 µM]
CCOC(=O)c1ccc(Nc2cc(C)nc(N3CCOCC3)n2)cc1	inconclusive [inhibitor, partial curve]	
CC(=O)Nc1ccc(N/C=C/C(=O)c2ccc(C)o2)cc1	inactive	
CCc1nc(SCC(=O)N2CCCC2)c2ccccc2n1	inactive	
CC(=O)c1c(OC(=O)c2ccco2)c2ccccc2n1C	active: 25.1 µM	
Cc1occc1-c1nnc(SCc2cc(=O)n3cc(Br)ccc3n2)n1C	inconclusive [inhibitor, partial curve]	
CCC(c1nnnn1CCc1ccccc1)N(Cc1ccco1)Cc1cc2cc(C)cc(C)c2[nH]c1=O (stereo not given)	inactive	
O=C1c2ccccc2C(=O)c2c1ccc(O)c2O	active: 10 µM	
COc1ccc(N2CC(C(=O)NCCC3=CCCCC3)CC2=O)cc1 (stereo not given)	inconclusive [inhibitor, partial curve]	
O=C(c1ccco1)N1CCN(c2ncnc3sc4c(c23)CCC4)CC1	inconclusive [inhibitor, partial curve]	

Compound	Potency	activity change, negative = inhibition
CC(=O)N(Cc1cc(=O)[nH]c2ccccc12)c1cccc(C)c1	inconclusive [inhibitor, partial curve]	
Cc1cc(C)n(-c2nnc(C)n2/N=C/c2cc(Br)ccc2OCc2ccccc2)n1	inconclusive [inhibitor, single point]	
O=C(COC(=O)c1ccc(Br)o1)Nc1nc2ccccc2s1	inconclusive [inhibitor, partial curve]	
Cc1cc2ccccc2n1CCNC(=O)C1CCCC1	inconclusive [inhibitor, single point]	
O=C1CSC(c2nn(-c3ccccc3)cc2-c2cc3ccccc3oc2=O)N1Cc1ccco1 (stereo not given)	inconclusive [inhibitor, partial curve]	
CN(C)c1ncc2nc(-c3ccc(F)cc3)c(=O)n(C)c2n1	inactive	
N#Cc1nc(-c2ccccc2Cl)oc1NCc1ccco1	inconclusive [inhibitor, partial curve]	
OC(c1cccc(OCc2ccccc2)c1)c1nnc(-c2ccccc2)o1 (stereo not given)	inconclusive [inhibitor, single point]	
COc1ccc(NC(=O)Nc2cccs2)cc1OC	active: 20 µM	
Cn1c(=O)c(-c2ccc(F)cc2)nc2cnc(OCc3ccccc3)nc21	inactive	
COc1cccc(N(CC(=O)NC2CCCC2)C(=O)Cn2nnc(-c3ccc(C)cc3)n2)c1	inconclusive [inhibitor, single point]	
Cc1ccc(OCCN2CCN(C(=O)CCC(=O)Nc3nnc(C(C)C)s3)CC2)cc1	inactive	
Cc1ccc(S(=O)(=O)N2CCCC2C(=O)Nc2nc3ccccc3s2)cc1 (stereo not given)	inconclusive [inhibitor, single point]	
N#Cc1c(/N=C/N2CCOCC2)sc2c1CCCCC2	inactive	
CCCOC(=O)c1ccc(Oc2c(-c3ccc(OC)cc3O)n[nH]c2C)cc1	inconclusive [inhibitor, single point]	
CCn1c(N)c(C(=O)NCCCOC)sc1=S	inconclusive [inhibitor, single point]	
O=C1/C(=C/Nc2ccc3c(c2)OCO3)CCc2ccccc21	inconclusive [inhibitor, partial curve]	
COc1cc(SC)ccc1C(=O)Nc1ccon1	inconclusive [inhibitor, single point]	
CCOC(=O)C1C(=O)CC(C)(O)C(C(=O)OCC)C1/C=C/c1ccccc1 (stereo not given)	inactive	
CC(C)OCCCN1C(=O)c2[nH]nc(-c3ccccc3O)c2C1c1cccc(Cl)c1 (stereo not given)	inconclusive [inhibitor, single point]	
O=c1c2cnn(-c3ccccc3)c2nc(-c2ccco2)n1-c1ccccc1	inconclusive [inhibitor, single point]	
CCOC(=O)c1ccc(N2C(=O)c3n[nH]c(C)c3C2c2ccc(OC)cc2)cc1 (stereo not given)	inconclusive [inhibitor, single point]	
CCOC(=O)c1c2n(c3ccc(O)cc13)CCCCC2	inconclusive [inhibitor, single point]	
CC(C)n1c(=S)[nH]c2c1c(=O)[nH]c(=O)n2C	inconclusive [inhibitor, full curve]	

Compound	Potency	activity change, negative = inhibition
O=C(CCCSc1nc(-c2ccco2)cc(C(F)(F)F)n1)Nc1ccc2c(c1)OCO2	inactive	
COC(=O)C1=CN(C(C)C)C=C(C(=O)OC)C1c1cccc(OC)c1	inactive	
Cc1ccc(-c2nnc(N3CCN(C(=O)CN4C(=O)c5ccccc5C4=O)CC3)c3ccccc23)cc1	inconclusive [inhibitor, single point]	
Cc1cc(C(=O)OCCO)c(C#N)c(N)n1	inactive	
c1nc(N2CCNCC2)c2cc(-c3ccc4c(c3)OCO4)ccc2n1	inactive	
Cc1ccc(-n2sc3ccccc3c2=O)cc1S(=O)(=O)N1CCCCC1	active: 0.501 µM	
COc1ccccc1-c1noc(CCC(=O)Nc2ccccc2Cl)n1	inconclusive [inhibitor, single point]	
CC(C)c1ccc(C2CC(=O)N3CN(C)CSC3=C2C#N)cc1 (stereo not given)	inconclusive [inhibitor, partial curve]	
Cc1c(C(=O)OCCOc2ccccc2)[nH]c2c1C(=O)CCC2	inconclusive [inhibitor, partial curve]	
Cn1c(NCc2cccc(Br)c2)nc2ccccc21	active: 10 µM	
COc1cccc(-n2nnnc2SCC(=O)N2CCCc3ccccc32)c1	inconclusive [inhibitor, single point]	
COc1ccccc1-c1cc(Nc2ccc(F)cc2)ncn1	inconclusive [inhibitor, single point]	
COc1ccccc1Nc1nc(-c2cccs2)cs1	inconclusive [inhibitor, partial curve]	
CCOC(=O)CCN1C(=O)[C@H]2[C@H]3[C@H](O)[C@H](O)C/C(=N/OC/C=C(\C)CCC=C(C)C)[C@H]3CC[C@@H]2C1=O		inactive: -5.05% [at 11.4 µM]
Cc1c(N(C)CS(=O)(=O)O)c(=O)n(-c2ccccc2)n1C	active: 12.6 µM and active: 25.1 µM	
Cc1ccsc1C(=O)OCC(=O)N1CCOCC1	inactive	
CCCCNC(=O)CSc1nc2ccc(N3CCOCC3)cc2c(=O)n1CCc1ccccc1	active: 25.1 µM	
O=C(CCCN1C(=O)c2ccccc2C1=O)Nc1ccc(S(=O)(=O)N2CCOCC2)cc1	inactive	
CC(C)(C)c1cc(C(c2cccnc2)N2CCN(CCO)CC2)cc(C(C)(C)C)c1O (stereo not given)	inconclusive [inhibitor, single point]	
O=c1c2ccccc2sn1-c1ccc(S(=O)(=O)N2CCCC2)cc1	active: 0.1 µM	
COc1ccc(OC)c(Nc2nc(-c3ccc(O)c(O)c3)cs2)c1	active: 0.126 µM	
COc1cccc(NC(=O)CSc2nnc(Cc3cccn3C)n2-c2ccc(F)cc2)c1	inconclusive [inhibitor, partial curve]	
